# Laboratory results: article PMC6919601, “Identification of Plasmodium dipeptidyl aminopeptidase allosteric inhibitors by high throughput screening” (PLoS ONE, 2019)
# The campaign covered roughly 110,000 compounds. About 230 (0.21%) showed an effect of 50% or more. This is one part of the list.
# Biological target: DPAP1 (Plasmodium falciparum, UniProt Q8IIJ9)
# Assay: primary screen, percent inhibition; read by cleavage of a fluorogenic dipeptide substrate; higher = more effect of the substance
# Design: species or system P. falciparum D10 trophozoite lysates; single well
# 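Note: 30 min substrate incubation versus DMSO and 10 µM JCP410 controls.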
# Sequence of DPAP1 (Q8IIJ9 whole entry, looked up): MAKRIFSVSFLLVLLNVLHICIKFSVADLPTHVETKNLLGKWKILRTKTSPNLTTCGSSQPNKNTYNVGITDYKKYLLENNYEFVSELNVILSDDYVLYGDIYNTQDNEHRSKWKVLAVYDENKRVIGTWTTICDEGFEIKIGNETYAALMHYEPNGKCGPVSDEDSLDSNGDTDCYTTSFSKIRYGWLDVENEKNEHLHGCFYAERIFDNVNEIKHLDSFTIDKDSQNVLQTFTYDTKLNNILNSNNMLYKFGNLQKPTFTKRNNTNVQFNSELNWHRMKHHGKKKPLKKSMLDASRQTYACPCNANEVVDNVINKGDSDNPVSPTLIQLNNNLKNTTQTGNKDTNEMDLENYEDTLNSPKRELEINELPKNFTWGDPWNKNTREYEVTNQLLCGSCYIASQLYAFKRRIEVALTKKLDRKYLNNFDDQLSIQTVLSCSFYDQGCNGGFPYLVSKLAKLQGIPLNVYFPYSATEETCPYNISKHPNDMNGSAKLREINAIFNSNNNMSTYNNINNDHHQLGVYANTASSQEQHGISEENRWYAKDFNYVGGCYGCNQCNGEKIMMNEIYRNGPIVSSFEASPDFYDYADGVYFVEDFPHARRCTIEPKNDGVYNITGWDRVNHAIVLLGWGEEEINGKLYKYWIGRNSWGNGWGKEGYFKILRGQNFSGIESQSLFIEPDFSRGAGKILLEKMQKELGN
row,SMILES,% Inhibition @ 10 uM
1,O=C(NCCc1n[nH]c(CCN2C(=O)c3ccccc3C2=O)n1)c1ccccc1,-6.71%
2,COC(=O)CCC(=O)Nc1ccc([N+](=O)[O-])cc1Br,-5.51%
3,CC(c1ccccc1)N1C(=O)NC(=O)/C(=C/c2coc3ccccc3c2=O)C1=O (stereo not shown),-2.19%
4,O=C(NCCSCc1ccccc1)c1cccnc1S,13.1%
5,CCOC(=O)c1[nH]c(C)c(C(=O)NCCN2CCCCCC2)c1C,-1.06%
6,O=C(NC12CC3CC(CC(C3)C1)C2)N1CCC(CN2CCOCC2)CC1,5.14%
7,O=C(NCc1ccc2c(c1)OCO2)C1COc2ccccc2O1 (stereo not shown),-1.52%
8,CC(C)(C)c1ccc(C(=O)N/C(=C\c2cccs2)C(=O)Nc2ccc(S(N)(=O)=O)cc2)cc1,4.32%
9,C=C1c2cc(OC)ccc2NC(=O)N1c1ccc(Cl)cc1,-1.55%
10,COc1ccc(CNCc2c(C(=O)O)n(Cc3cc(C)ccc3C)c3ccccc23)cc1,1.93%
11,COc1ccc(NC(=O)[C@@H]2C3C=CC(C3)[C@@H]2C(=O)O)cc1 (stereo partly shown),1.54%
12,Cc1ccc2c3c(ccc2n1)N=C1CCCC(O)=C1C3c1ccccc1 (stereo not shown),-1.06%
13,O=C(Nc1cccc(N2C(=O)C3CC=CCC3C2=O)c1)c1ccccc1 (stereo not shown),-4.54%
14,O=C(c1cc(F)c(F)cc1Cl)N1CCOCC1,-1.8%
15,O=C(NCCC1=CCCCC1)C1CCN(c2ncnc3c2nc2n3CCCCC2)CC1,4.61%
16,Oc1nc(-c2ccccc2)c2cc(Cl)ccc2n1,-1.32%
17,COc1ccc2cc(-c3nc(-c4ccc(OC)c(OC)c4)no3)c(=O)oc2c1,10.3%
18,Cc1cc(C)c2nc(N3CCCC(C(=O)NC4CCN(Cc5ccccc5)CC4)C3)sc2c1 (stereo not shown),-1.58%
19,COCc1[nH]nc2c1C(c1ccncc1)C(C#N)=C(N)O2 (stereo not shown),-2.06%
20,COc1ccccc1[C@@H]1[C@H]2CCCC[C@]2(O)CCN1C(C)=O,0.98%
21,COc1ccc(CN2CCN(S(=O)(=O)c3ccc(Cl)cc3)CC2)cc1Br,2.45%
22,CC(=O)N[C@H]1[C@H](Oc2nc3ccccc3o2)O[C@H](CO)[C@@H](O)[C@@H]1O,4.8%

row,SMILES,% Inhibition @ 10 uM
1,COc1cc(C(=O)Nc2ccccn2)cc(OC)c1OC,-1.6%
2,COc1ccc(CNC(=O)c2cc3c(s2)-c2ccc(Cl)cc2S(=O)(=O)C3)cc1,-2.45%
3,O=C1CC(N2CCC(c3nc4ccccc4o3)CC2)C(=O)N1Cc1ccc(F)cc1 (stereo not shown),-2.18%
4,O=C(NCCCN1CCN(C2CCCCC2)CC1)c1cc2c(s1)CS(=O)(=O)C2,-6.59%
5,NS(=O)(=O)c1ccc(NC(=O)CN2C(=O)S/C(=C\C=C\c3ccccc3)C2=O)cc1,1.27%
6,CN(CC(=O)Nc1ccc(C(F)(F)F)cc1)S(=O)(=O)c1ccc(F)cc1,-2.29%
7,Cc1cc(C(=O)NCc2nc3ccccc3[nH]2)c2ccccc2n1,10.4%
8,Brc1ccc(-c2nnc(CC34CC5CC(CC(C5)C3)C4)o2)cc1,-8.53%
9,COc1cc2ncc(C(=O)c3ccc(C)cc3)c(S(=O)(=O)c3ccccc3)c2cc1OC,-10.6%
10,Cc1cc(OCCCCn2ccnc2)cc(C)c1Cl,3.48%
11,Cc1ccccc1CNC(=O)CN(c1ccc(F)cc1)S(=O)(=O)c1ccccc1,3.17%
12,Clc1ccc2c(c1)c1cc(Cl)ccc1n2COCc1ccccc1,-4.91%
13,Cc1cc(C)n(-c2nnc(C)n2/N=C/c2ccccc2O)n1,2.35%
14,CC(=O)c1cc2c(cc1NC(=O)c1ccc(Cl)cc1)OCO2,-1.61%
15,CCc1nn(CCCC(=O)NCc2ccc(OC)cc2)c(=O)c2cc3occc3n12,-3.79%
16,COC(=O)c1sccc1NC(=O)c1nc(-c2ccncc2)no1,3.71%
17,Cc1ccc2c(c1)-c1onc(C(=O)N3CCC(C)CC3)c1CO2,4.1%
18,CC(NC(=O)CN(C)S(=O)(=O)c1ccc2[nH]c(-c3ccccc3)nc2c1)c1ccccc1 (stereo not shown),2.27%
19,O=C(NCCSCc1ccccc1)c1ccc(CN2CCc3ccccc3C2)cc1,-3.63%
20,CCC(CC)NCc1cc(OC)cc(OC)c1,1.43%
21,CN(C)CCN(C)C1CCN(C)CC1,2.22%
22,CC(=O)N(c1cccc(C)c1)S(=O)(=O)c1ccc(Cl)cc1,-3.14%

row,SMILES,% Inhibition @ 10 uM
1,O=[N+]([O-])c1ccccc1-c1nc2ccccc2[nH]1,8.68%
2,CCn1c(C(O)c2cc(OC)ccc2OC)nc2ccccc21 (stereo not shown),4.47%
3,Cc1cccc(OCC(=O)NC2C3CC4CC(C3)CC2C4)c1C (stereo not shown),0.189%
4,O=S(=O)(Nc1nccs1)c1ccc(F)cc1,1.87%
5,OCCN1CCN(c2nc(-c3ccc(Cl)cc3)cs2)CC1,-3.45%
6,FC(c1nc2cc(Cl)ccc2[nH]1)C(F)(F)F (stereo not shown),1.66%
7,Cc1ccc2oc(C(=O)NCCc3ccc(S(N)(=O)=O)cc3)c(C)c2c1,-1.36%
8,CN1CCC(N(C)Cc2ccc(Br)cc2)CC1,-1.92%
9,CS(=O)(=O)N(CC(=O)NCc1ccc(Cl)cc1)C1CCCCC1,-0.545%
10,COc1cc(OC)c(OC)cc1CN1CCOCC1,2.7%
11,Cc1nc2c(C(=O)N3CCc4ccccc4C3)cnn2c(C)c1Cc1ccc(Cl)cc1,-2.26%
12,COc1cccc(S(=O)(=O)Nc2ccc(C(=O)NCc3ccco3)cc2)c1,0.795%
13,O=C(Cn1ncc2c3ccccc3n(Cc3ccccc3F)c2c1=O)N1CCC2(CC1)OCCO2,-1.58%
14,COc1ccccc1CN1CCN(Cc2cc(OC)c(OC)cc2OC)CC1,7.04%
15,Cc1ccc(C2CC(=O)N3CN(CCC(C)C)CSC3=C2C#N)cc1 (stereo not shown),43.8%
16,COC(=O)c1cc2occc2n1Cc1cccc(OC)c1,-1.69%
17,CNCC(C)COc1ccccc1OCc1ccccc1 (stereo not shown),-2.29%
18,O=C(O)CCC(=O)N1CCN(c2cccc(Cl)c2)CC1,1.52%
19,COc1ccc(CN2CCCCC2CO)c2ccccc12 (stereo not shown),2.1%
20,O=C(Nc1cccc(NC(=O)c2cccnc2)n1)c1cccnc1,-0.28%
